PubChem BioAssay AID463173 (ICCB-Longwood Screening Facility, Harvard Medical School, 2010)
About 1,700 (3.3%) of roughly 52,000 compounds were called active. No stated cut-off is given here; in the data, active means survival mostly below about 52% (no sharp cut-off); inactive means mostly above about 56%. This is one part of the list.

System: Wild type
Test: growth inhibition of S. aureus wild type versus tarO mutant, primary screen, teichoic acid synthesis inhibitors, RN4220, OD600 (AID 463173)
Settings: S. aureus RN4220 wild type/DeltatarO growth, OD600, 18 h, stronger effect = lower value, screened at 18.75 µg/mL (by protocol)

Structure (SMILES)	survival
Cc1cc(C)c(NC(=O)Cn2c(=O)n(CCCCC(=O)NCc3ccccc3Cl)c(=O)c3ccccc32)c(C)c1	inactive: 106%
COc1cc(CN(CC2CCCO2)C(=O)c2ccccc2F)cc(OC)c1OC (stereo not given)	inactive: 83%
Cc1ccc(Cl)cc1NC(=O)Cn1nc2c(cc1=O)CC(C)CC2 (stereo not given)	inactive: 73%
CCOc1ccc(NC(=O)CN2C(=O)COc3ccc(S(=O)(=O)Nc4ccccc4)cc32)cc1	inactive: 67%
Cc1ccc(OCCSc2nc3ccccc3n2CC(=O)N2CCOCC2)c(C)c1	inactive: 107%
COc1ccc(C(=O)Nc2ccc3nc4n(c(=O)c3c2)CCCCC4)cc1OC	inactive: 91%
O=C(NNc1ncnc2c1cnn2-c1ccccc1)c1cccc(Cl)c1	inactive: 148%
CCC(=O)N1CCc2cc(Br)cc(S(=O)(=O)N3CCC(C(=O)NC(C)(C)C)CC3)c21	inactive: 86%
COc1ccc(Cl)c(Cn2c(NCCN)nc3c2c(=O)n(C)c(=O)n3C)c1	inactive: 84%
COc1ccc(C(=O)NCc2nnnn2-c2ccc(C)c(C)c2)cc1	inactive: 75%
CSc1nc(-c2ccc(Cl)cc2)nn1C(C)=O	inactive: 102%
CC(C)Cn1c(=O)c2ccccc2n2c(-c3cccc(Cl)c3)nnc12	inactive: 89%
CCc1ccccc1NC(=O)CSc1nnc(-c2nonc2NC(C)=O)n1C	inactive: 85%
Cc1ccnc(NC(c2ccccc2F)c2ccc3cccnc3c2O)c1 (stereo not given)	active: -8%
N#Cc1ccc(-c2cccs2)nc1SCc1ccc(Cl)cc1Cl	inactive: 63%
CCOc1ccc(NC(=O)N2CCOc3ccccc32)cc1	inactive: 86%
Cc1ccc(Cl)cc1Nc1nc2ccccc2n2c(C)nnc12	inactive: 92%
O=C1NC(c2ccccc2)Oc2ccccc21 (stereo not given)	inactive: 103%
CCCOc1ccccc1Cn1c(=O)sc2ccccc21	active: -5%
CCCCc1nn2c(=O)cc(COC(=O)c3ccccc3NC(=O)C(C)(C)C)nc2s1	inactive: 117%
Cc1cc(NS(=O)(=O)c2ccc(NC(=O)COc3ccc(Br)cc3C)cc2)no1	inactive: 65%
CCOC(=O)c1ccc(NC(=O)CN2C(=O)c3cccnc3Oc3ccc(Cl)cc32)cc1	inactive: 85%
Cc1ccc(N2CCn3c2nc2c3c(=O)n(CCc3ccccc3)c(=O)n2C)cc1C	inactive: 85%

Structure (SMILES)	survival
Cc1[nH]c(=O)[nH]c(=O)c1C1N2CC3(C(C)C)CN1CC(C(C)C)(C2)C3=O (stereo not given)	inactive: 86%
Cc1ccc(-n2ncc(C(=O)N3CCN(c4cccc(C)c4)C(C)C3)c2C2CCN(C(=O)OC(C)(C)C)CC2)cc1 (stereo not given)	inactive: 152%
Cc1ccc(CNC(=O)Cn2nc(C)n3cccc3c2=O)cc1	inactive: 90%
O=C(O)CCn1nnc(-c2cccs2)n1	inactive: 101%
O=C(NCc1ccc(Cl)cc1)c1cc(S(=O)(=O)N2CCCCC2)c[nH]1	inactive: 102%
CCOc1ccc2nc(NC(=O)c3cc(=O)c4ccc(C)cc4o3)sc2c1	inactive: 52%
CCN1CCSc2ccc(C(=O)NC(C)c3ccccc3)cc21 (stereo not given)	inactive: 89%
Cc1cc(C)cc(C(=O)Nc2ccc(-c3nc4ncccc4o3)cc2)c1	inactive: 80%
Cc1c2cnn(CC(=O)N3CCN(c4ccc(F)cc4)CC3)c(=O)c2c(C)n1Cc1ccc(F)cc1	inactive: 92%
Cc1nn(CCCC(=O)NCc2ccc(F)cc2)c(=O)c2c1sc1ccccc12	inactive: 87%
CCOc1ccc(N2CC(c3nc4ccccc4n3Cc3cccc(Cl)c3)CC2=O)cc1 (stereo not given)	inactive: 51%
COc1c(C)cc(S(=O)(=O)NCCc2c(C)[nH]c3ccccc23)c(C)c1C	inactive: 105%
CCOC(=O)c1cc(-c2ccccc2)n(-c2cccc(C(=O)Nc3ccc(F)c(F)c3)c2)c1C	inactive: 68%
COc1ccccc1CNC(=O)CCn1c(=O)c2ccccc2n(CC(=O)Nc2cccc(Cl)c2)c1=O	inactive: 84%
Cc1c(NC(=O)c2cc(-c3ccc(Cl)c(Cl)c3)on2)c(=O)n(-c2ccccc2)n1C	inactive: 74%
CCOC(=O)c1ccc(NC(=O)CCCc2nc(-c3ccccc3Cl)no2)cc1	inactive: 75%
CCOc1ccc(S(=O)(=O)NCC(c2ccco2)S(=O)(=O)c2cccs2)cc1 (stereo not given)	inactive: 74%
CCOc1ccc(-c2cc(NC(=O)Nc3cccc(C(C)=O)c3)c(C(=O)OC)s2)cc1	inactive: 81%
COc1ccc(N2CCN(C(=O)CCc3c(C)nn(-c4ccc(N5CCCC5)nn4)c3C)CC2)cc1	inactive: 77%
Cc1ccc(NC(=O)Nc2nnc(N(CC(C)C)CC(C)C)s2)cc1Cl	inactive: 89%
COc1ccc(OC)c(NC(=O)C2CCCN(S(=O)(=O)c3c(C)nn(C)c3C)C2)c1 (stereo not given)	inactive: 74%
Cc1ccc(NC(=O)c2cnn3c(C(F)F)cc(-c4ccccc4)nc23)c(C)c1	inactive: 76%
